Over roughly 33,000 sequences, “E-score (-0.5 to 0.5)” has its median near -0.053; the highest 2% begin near 0.37. The list shows a part of the results.

This is an account of results in the supplement of paper PMC3334620.

The assay deals with Hap1 (UniProt P0CE41). The assay is described as follows: PBM E-score (8-mer binding enrichment) (E-score (-0.5 to 0.5)); higher = stronger / more preferred TF binding; most listed sequences are background and not binding sites. The settings on record: protein concentration: 200 nM; construct: GST-DNA-binding domain. Here is the method: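 Universal 'all 10-mer' protein binding microarrays (Agilent AMADID 015681) probed with GST-tagged S. cerevisiae TFs (full-length or DBD) made by in vitro transcription/translation (PURExpress), about 100-200 nM. Bound TF was detected with fluorescent anti-GST. Each ungapped 8-mer (which stands for itself and its reverse complement) is scored by the PBM enrichment score (E-score), a modified Wilcoxon-Mann-Whitney statistic from -0.5 to +0.5, computed with the Universal PBM Analysis Suite. Scale: above 0.35 generally sequence-specific binding.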
UniProt P0CE41, sequence (P0CE41 whole entry, the tested form may be a part): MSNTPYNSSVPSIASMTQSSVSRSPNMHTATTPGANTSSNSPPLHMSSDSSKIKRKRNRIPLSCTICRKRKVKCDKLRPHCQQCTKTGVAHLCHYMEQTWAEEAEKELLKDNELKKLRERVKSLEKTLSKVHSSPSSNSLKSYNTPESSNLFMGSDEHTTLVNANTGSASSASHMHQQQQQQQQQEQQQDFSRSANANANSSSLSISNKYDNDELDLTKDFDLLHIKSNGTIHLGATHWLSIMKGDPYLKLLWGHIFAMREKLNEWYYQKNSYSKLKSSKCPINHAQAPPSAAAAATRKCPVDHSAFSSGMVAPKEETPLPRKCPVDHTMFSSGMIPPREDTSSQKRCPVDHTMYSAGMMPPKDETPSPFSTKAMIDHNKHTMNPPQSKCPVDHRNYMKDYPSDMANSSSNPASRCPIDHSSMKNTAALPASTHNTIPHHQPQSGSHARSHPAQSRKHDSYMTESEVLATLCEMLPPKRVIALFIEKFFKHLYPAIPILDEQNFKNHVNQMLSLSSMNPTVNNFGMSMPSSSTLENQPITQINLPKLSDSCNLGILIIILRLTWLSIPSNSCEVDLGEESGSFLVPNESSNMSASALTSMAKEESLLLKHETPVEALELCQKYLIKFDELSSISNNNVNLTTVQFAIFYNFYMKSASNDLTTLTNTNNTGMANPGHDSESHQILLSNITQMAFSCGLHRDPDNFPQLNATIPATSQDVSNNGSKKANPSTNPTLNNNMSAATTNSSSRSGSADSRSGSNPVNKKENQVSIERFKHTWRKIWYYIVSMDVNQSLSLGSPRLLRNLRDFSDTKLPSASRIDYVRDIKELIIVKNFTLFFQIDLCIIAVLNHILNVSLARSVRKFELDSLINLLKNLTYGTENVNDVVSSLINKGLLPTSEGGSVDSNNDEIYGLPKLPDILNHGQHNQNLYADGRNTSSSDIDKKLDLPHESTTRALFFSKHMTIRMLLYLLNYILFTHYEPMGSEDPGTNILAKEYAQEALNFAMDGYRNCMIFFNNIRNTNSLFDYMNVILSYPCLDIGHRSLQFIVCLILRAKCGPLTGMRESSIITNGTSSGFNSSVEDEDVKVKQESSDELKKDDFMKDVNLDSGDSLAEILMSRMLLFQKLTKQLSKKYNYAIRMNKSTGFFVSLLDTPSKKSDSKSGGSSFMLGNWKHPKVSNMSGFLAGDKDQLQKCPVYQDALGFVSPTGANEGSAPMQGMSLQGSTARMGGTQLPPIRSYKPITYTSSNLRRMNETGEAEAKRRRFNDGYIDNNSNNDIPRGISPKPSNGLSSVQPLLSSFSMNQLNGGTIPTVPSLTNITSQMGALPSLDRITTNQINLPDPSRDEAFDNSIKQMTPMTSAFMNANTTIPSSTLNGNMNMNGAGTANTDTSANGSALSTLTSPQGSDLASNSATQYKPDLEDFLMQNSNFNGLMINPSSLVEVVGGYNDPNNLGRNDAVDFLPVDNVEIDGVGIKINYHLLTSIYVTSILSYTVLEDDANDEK
Consider ACGCAATG, for which the “PBM E-score” value is -0.194.
As to CGGCCATA, the “PBM E-score” value is 0.31.
With CGCCATAG, the “PBM E-score” value is -0.0279.
ATAGCACC: the “PBM E-score” value is 0.0971.
Regarding AGGTCTTA, the “PBM E-score” value was 0.0242.
In the case of ATGTAAAG, the “PBM E-score” value is -0.0593.
On to CAGCATAG, for which the “PBM E-score” value is -0.169.
With CAGAGTCG, the “PBM E-score” value was -0.201.
In the case of GAGACCTC, the “PBM E-score” value is 0.0419.
On to CACGGTGA, for which the “PBM E-score” value is -0.00345.
In the case of CTCGGCGC, the “PBM E-score” value was determined as 0.318.
The figure for AACAGCAA is -0.0695.
Regarding ACCTCGCA, the “PBM E-score” value is -0.134.
CGCCAAGC: the “PBM E-score” value was -0.0264.
The figure for ACACACGC is 0.0352; for AACCGTGA it is 0.0639.
As for CTCAGAAA, the “PBM E-score” value is -0.192.
As to ACTTGTTG, the “PBM E-score” value is -0.296.
As to CTTACCCC, the “PBM E-score” value was found to be 0.08.
In the case of AGTACGCA, the “PBM E-score” value was -0.233.
The figure for AAGAGACG is 0.0838.
Regarding ACCAATAT, the “PBM E-score” value is -0.143.
AAGGAGTG: the “PBM E-score” value is -0.182.
In the case of ATGTACCG, the “PBM E-score” value turned out to be 0.137.
In the case of CAGACTAA, the “PBM E-score” value was -0.157.
On to CGGCTCTA, for which the “PBM E-score” value worked out at 0.334.
The figure for CAAGACCA is -0.379; for ATAGAATA it is -0.0968.
Regarding AAGGAGGC, the “PBM E-score” value was -0.191.
In the case of GTCTGCTA, the “PBM E-score” value was -0.158.
CCCCCTCG: the “PBM E-score” value was -0.253.
As for CATGACGC, the “PBM E-score” value is -0.155.
In the case of ACTTCTGC it was -0.095.
As for ATTATGGG, the “PBM E-score” value was -0.0181.
In the case of AAGATATA, the “PBM E-score” value amounted to 0.0708.
Take CTGCAACA: the “PBM E-score” value is -0.0884.
Turning to CCTGTGTA, the “PBM E-score” value is -0.265.
In the case of ATCTATCA it was -0.155; in that of AGAGATAC, -0.0992.
On to AGGGTGTC, for which the “PBM E-score” value was -0.047.
Consider CAGGAGAG, for which the “PBM E-score” value is -0.247.
The figure for AGAGCAAA is -0.237; for CCAAGAGG it is -0.281.
As to GTACGTAC, the “PBM E-score” value worked out at 0.00133.
GTCATTCA: the “PBM E-score” value is -0.0197.
In the case of GCAAAACA it was -0.124.
In the case of AATACTAT it was -0.152; in that of CGCGGGGA, 0.256; in that of ACCCGTAA, 0.238.
In the case of CCCTCGAC, the “PBM E-score” value was -0.128.
Consider CGTCGGCC, for which the “PBM E-score” value stood at 0.332.
The figure for ATGACAAG is -0.118; for GAGCCTTA it is -0.0282.
GACTTGGC: the “PBM E-score” value was -0.2.
In the case of GCTGCACC it was 0.122; in that of CGCATTAC, 0.0604; in that of CTACCATC, -0.179.
On to AGAGCTTA, for which the “PBM E-score” value is -0.00803.
As for ATCTCATA, the “PBM E-score” value was -0.181.
With CCCGGAAC, the “PBM E-score” value is 0.31.
Turning to AACTGTAA, the “PBM E-score” value is -0.0672.
As for GAGGCCGC, the “PBM E-score” value was -0.0786.
For the sequence ACCTCATC, the “PBM E-score” value is -0.0418.
CGGGCTTA: the “PBM E-score” value worked out at 0.437.
For CGGACCCG, the “PBM E-score” value came to 0.387.
CGTAACTA: the “PBM E-score” value was -0.156.
As to AAAAGAGC, the “PBM E-score” value was -0.0828.
Turning to AGTATATC, the “PBM E-score” value amounted to 0.119.
CGGTTTTC: the “PBM E-score” value is 0.284.
For the sequence ATCGACAT, the “PBM E-score” value was -0.0792.
As for ATGTAGGA, the “PBM E-score” value was -0.137.
Turning to CGTTCGGC, the “PBM E-score” value turned out to be 0.291.
On to GGATCCGA, for which the “PBM E-score” value was 0.36.
With GGCTACCC, the “PBM E-score” value was -0.208.
The figure for GACATGTC is -0.00499; for GTTATGCA it is -0.117; for ACCCGGAC it is 0.372.
As to AAAAAACA, the “PBM E-score” value came to 0.0127.
For the sequence ATTATCTA, the “PBM E-score” value is -0.0923.
Regarding GAAGGCGA, the “PBM E-score” value was -0.0329.
The figure for ATCATACC is 0.0264; for CAGAGCGG it is -0.00124.
Consider AGTTGTTG, for which the “PBM E-score” value is -0.15.
In the case of CCTGCCTA it was -0.16; in that of ATATACTA, 0.0448.
CCCGTGTA: the “PBM E-score” value came out at 0.14.
As for AAGAAACG, the “PBM E-score” value amounted to 0.00182.
With TCAGTCGA, the “PBM E-score” value is -0.117.
With CCTGAGAA, the “PBM E-score” value is -0.253.
For AGCGAGCA, the “PBM E-score” value was -0.123.
The figure for GTCGCCTA is 0.0459; for CCACGGAC it is 0.317; for CGAGCCAA it is -0.0791.
In the case of ACACCAGG, the “PBM E-score” value is -0.168.
Consider AAATCAAC, for which the “PBM E-score” value was -0.108.
As to CTCGCTCC, the “PBM E-score” value is -0.0453.
Regarding AGGTATTC, the “PBM E-score” value is -0.163.
In the case of ACGCGGGC, the “PBM E-score” value was found to be 0.229.
Take AATACGCA: the “PBM E-score” value is -0.0542.
Regarding GTGGGACA, the “PBM E-score” value is -0.138.
Take CAAGTCCC: the “PBM E-score” value was -0.181.
Take GACCGTAC: the “PBM E-score” value was -0.00805.
In the case of CACTGAAA it was -0.0957; in that of ATCCTATA, -0.0118.
ATGTCCAC: the “PBM E-score” value came to 0.129.
Consider CGATAATC, for which the “PBM E-score” value was determined as 0.168.
The figure for ACGTCACC is -0.139; for AGCGGGTG it is 0.115.
In the case of GATTACAC it was -0.088.
